Data: ChEMBL document CHEMBL4888484, “Replenishing the malaria drug discovery pipeline: Screening and hit evaluation of the MMV Hit Generation Library 1 (HGL1) against asexual blood stage Plasmodium falciparum ,using a nano luciferase reporter read-out” (2022)
The whole screen tested about 4,800 compounds, of which about 420 (8.8%) showed an effect of 50% or more. The list shows a part of the results.

What follows are compounds tested on Plasmodium falciparum (assay: Confirmatory screen in NF54 nanoGlo assay, in single point, at 2uM, 72h). Conditions: timepoint 72 hour.
Format: functional, Erythrocyte
For O=C(CCCC(=O)C1CC1)NC[C@H]1CCCOC1, the “% Inhibition” value was -8%. For CN(C)c1ccc(NC(=O)C2(N(Cc3ccccc3)C(=O)Cn3nnc4ccccc43)CCCCC2)cc1, the “% Inhibition” value was 26%. CC(C)Cc1nsc(N2CCOC3CCN(C)CC32)n1 (stereo unspecified) was tested, and the “% Inhibition” value was -1%. CCn1ncc(-c2cc(C(F)(F)F)c3c(C(C)C)nn(-c4ccc(F)cc4)c3n2)c1C was tested, and the “% Inhibition” value was -8%. In the case of O=C(O)C1CCC(=O)N(C2CC2)C1c1ccccc1 (stereo unspecified), the “% Inhibition” value is reported as 3%. With COc1cccc(CNC(=O)Cn2c(=O)n(C)c(=O)c3c2c(-c2ccccc2)cn3C)c1OC the “% Inhibition” value was -5%. In the case of COc1ccc(OC)c(CCNC(=O)Cn2ccc3cc(S(=O)(=O)N4CCCC4)ccc32)c1, the “% Inhibition” value is reported as 7%. CCc1ccccc1NC(=O)Cn1cnc2nc(N(C)Cc3ccccc3)sc2c1=O was tested, and the “% Inhibition” value was -16%. With CC(C)C1(CNC(=O)C(=O)c2cc(S(N)(=O)=O)cn2C)CC1 the “% Inhibition” value was -3%. With C[C@H]1CCc2c(cnc3c(C(=O)NC4CC4)cnn23)C1 the “% Inhibition” value was -8%. In the case of CC(=O)c1cccc(NC(=O)c2nonc2C)c1, the “% Inhibition” value is reported as -11%. With CCCn1nc(-n2cnnc2)c(NS(=O)(=O)c2ccc(OC)c(OC)c2)c1C the “% Inhibition” value was 0%. COc1ncnc(OC)c1C(=O)N1CCC[C@H]1C=Cc1ccccc1 was tested, and the “% Inhibition” value was -12%. In the case of Cc1ccc(C(=O)OCC(=O)Nc2ccc3c(c2)OCO3)cn1, the “% Inhibition” value is reported as -2%. For CCCn1c(C)nnc1COC(=O)c1ncoc1C, the “% Inhibition” value was -5%. CS(=O)(=O)[C@H]1CCCN(c2nc3cc(F)ccc3o2)C1 was tested, and the “% Inhibition” value was -10%. Cn1cc(CCNC(=O)C2=NN(c3ccccc3)[C@H](C(N)=O)C2)cn1 was tested, and the “% Inhibition” value was -5%. With CCc1ccc(NCc2c(OCc3ccc(Br)cc3)ccc3ccccc23)cc1 the “% Inhibition” value was -11%. O=C1NC2=Nc3ccccc3NC(c3ccccc3)=C2[C@H](c2cccc3ncccc23)N1 was tested, and the “% Inhibition” value was 19%. In the case of O=C1C[C@@H](c2cccc(Br)c2)c2c(O)nc(N3CCOCC3)nc2N1, the “% Inhibition” value is reported as -9%. Cc1nn(C)cc1[C@H](C)NC(=O)c1cc(-c2ccccc2)on1 was tested, and the “% Inhibition” value was 0%. O=C(NC1CCN(Cc2ccccc2)CC1)c1cnn2c(-c3ccc4c(c3)OCO4)ccnc12 was tested, and the “% Inhibition” value was 3%. In the case of Cc1ccc(S(=O)(=O)N2CCN(C(=O)N3CCOCC3)[C@@H]2C)cc1, the “% Inhibition” value is reported as -8%. CC(=O)N1CCN(C(=O)CC2CC3CCC2C3)CC1 (stereo unspecified) was tested, and the “% Inhibition” value was -15%. COc1ccccc1-n1c(=O)[nH]c2nc(N3CCN(c4ccccn4)CC3)ncc2c1=O was tested, and the “% Inhibition” value was -6%. With Cc1ccc(NCc2ncccn2)cc1OCC1CCCCC1 the “% Inhibition” value was 1%. In the case of Cn1c(CCNC(=O)CCc2cccnc2)nc2cc(Cl)ccc21, the “% Inhibition” value is reported as -3%. Cc1ccc(S(=O)(=O)Nc2cc3nc4ccccc4nc3n2CCc2ccccc2)cc1 was tested, and the “% Inhibition” value was 100%. With Cn1c(-c2ccccc2)cn2cc(-c3ccc(F)cc3)nc12 the “% Inhibition” value was 1%. COc1ccc2[nH]c3c(c2c1)CCN(C(=O)c1ccc(C)c(C)c1)[C@@H]3c1ccccc1OC was tested, and the “% Inhibition” value was 84%. For O=c1[nH]c(=O)n(-c2ncnc3c2cnn3-c2ccccc2)cc1Cl, the “% Inhibition” value was 5%. CCO/N=C(\Nc1ccccc1)c1nonc1N was tested, and the “% Inhibition” value was -6%. In the case of COc1ccc(CC(=O)NCc2nnc3n2CCC3)cc1, the “% Inhibition” value is reported as 12%. In the case of Cc1cnc(N[C@@H](CN)C2CCCCC2)nc1, the “% Inhibition” value is reported as -13%. With CS(=O)(=O)C[C@H](NCc1nc2c(s1)CCC2)c1ccccc1 the “% Inhibition” value was 0%. With C=CCCCN(C)C(=O)c1cc(S(N)(=O)=O)cc(Cl)c1F the “% Inhibition” value was 1%. For N#CCC(=O)Nc1nc(-c2ccc(Oc3ccccc3)cc2)cs1, the “% Inhibition” value was -4%. For CC(=O)Nc1ccc(C)cc1S(=O)(=O)N1CC=C(c2c(C)n(Cc3ccccc3C)c3ccccc23)CC1, the “% Inhibition” value was 91%. CN1CCC[C@H](C(=O)Nc2nc(C3CC3)cs2)C1 was tested, and the “% Inhibition” value was -12%. For CCOc1ccc(Nc2c3ccccc3nc3ccccc23)cc1, the “% Inhibition” value was 86%. With COc1ccc(CN2CC(C)OC3(CCOC3)C2)cc1Cl (stereo unspecified) the “% Inhibition” value was -3%. With CCc1ccc(S(=O)(=O)N2CCn3c(nnc3[C@H]3CCN(C(C)C)C3)C2)cc1 the “% Inhibition” value was -8%. For O=C(CNC(=O)c1ccc(C(F)(F)F)cc1)Nc1cnc2c(c1)COCC2, the “% Inhibition” value was -1%. In the case of Cc1cc(C(=O)NCC[C@H](C)n2nc(C)cc2C)c2c(-c3ccc(F)cc3)noc2n1, the “% Inhibition” value is reported as -9%. COc1ccccc1Cc1nnc2n1CCCC2 was tested, and the “% Inhibition” value was 0%. CC1CCN(C[C@H](O)C(F)(F)F)CC1 was tested, and the “% Inhibition” value was -7%. In the case of Cn1cc(Cl)c(C(=O)Nc2cccc(S(=O)(=O)N3CCOCC3)c2)n1, the “% Inhibition” value is reported as -2%. With CN(C)S(=O)(=O)c1cc(C(=O)N2CCCO2)co1 the “% Inhibition” value was -1%. For CCc1ccsc1CN=C(N)NC1CCCCC1, the “% Inhibition” value was -3%. CCc1cc(C(=O)N2CCCCC2)c2c(C)nn(-c3ccc(OC)cc3)c2n1 was tested, and the “% Inhibition” value was -5%. O=C(C[C@H](NCCO)C(=O)O)c1ccc2c(c1)CCCC2 was tested, and the “% Inhibition” value was -5%. For COCCOCC(=O)Nc1cc(Cl)c(C)cc1Br, the “% Inhibition” value was -4%. COc1cccc(-c2nc3n(c2C(=O)Nc2cccc(Cl)c2)CCS3(=O)=O)c1 was tested, and the “% Inhibition” value was -3%. With Cc1oc(-c2ccc(C(=O)Nc3cccc(Cl)c3C)cc2)nc1COc1ccccc1 the “% Inhibition” value was -2%. In the case of CCOc1cccc(CNC(=O)c2nn[nH]c2Nc2ccc(C)c(C)c2)c1, the “% Inhibition” value is reported as 1%. In the case of COc1cccc(C(N)=O)c1OCC(=O)NC(C)C, the “% Inhibition” value is reported as -10%. In the case of Cc1nc(NCc2coc3ccccc23)n(C)n1, the “% Inhibition” value is reported as -12%. For Cc1ccccc1N1CCN(C(=O)CCC2CCN(c3cc(NC4CC4)ncn3)CC2)CC1, the “% Inhibition” value was -10%. In the case of Cc1cc(OCc2ccc(Br)cc2)c(C)cc1CN1CCOCC1, the “% Inhibition” value is reported as -1%. With O=C1\N=C(c2ccc(Cl)cc2)/N=N\C(c2ccc(Cl)cc2)=N/[C@]1(O)C(F)(F)F the “% Inhibition” value was -18%. For O=C(C[C@H]1CCOC1)Nc1cc2ccc(Br)cn2n1, the “% Inhibition” value was 1%. CC(C1Cc2ccccc2O1)N(C)Cc1nccn1S(=O)(=O)N(C)C (stereo unspecified) was tested, and the “% Inhibition” value was -9%. For Cc1nccn1-c1ncc(NC(=O)Nc2ccc3c(c2)OCO3)cn1, the “% Inhibition” value was 21%. CCN(CC)c1ccc(C(=O)Nc2ccc3nc(N4CCCC4)cc(C)c3c2)cc1 was tested, and the “% Inhibition” value was 85%. O=C(NCc1ccc(N2CCCC2=O)cc1)c1cnc2n1CCCC2 was tested, and the “% Inhibition” value was -14%. O=C(N[C@@H](N1CCCCCC1)C(Cl)(Cl)Cl)c1cccc(Cl)c1 was tested, and the “% Inhibition” value was -10%.
